# Reference: article PMC4336329 (PLoS ONE, 2015)
# Screen size: about 310,000 compounds; about 14,000 (4.5%) showed an effect of 50% or more. The effect is printed as a negative number. This is one part of the list.
# Target: human ether-à-go-go-related gene (hERG) potassium channel (human, UniProt Q12809)
# Experiment: primary screen, population patch clamp on CHO cells stably expressing hERG
# 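Note: peak tail current of the secondary pulse compared with the same well before compound.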
# Sequence of human ether-à-go-go-related gene (hERG) potassium channel (Q12809 whole entry, looked up): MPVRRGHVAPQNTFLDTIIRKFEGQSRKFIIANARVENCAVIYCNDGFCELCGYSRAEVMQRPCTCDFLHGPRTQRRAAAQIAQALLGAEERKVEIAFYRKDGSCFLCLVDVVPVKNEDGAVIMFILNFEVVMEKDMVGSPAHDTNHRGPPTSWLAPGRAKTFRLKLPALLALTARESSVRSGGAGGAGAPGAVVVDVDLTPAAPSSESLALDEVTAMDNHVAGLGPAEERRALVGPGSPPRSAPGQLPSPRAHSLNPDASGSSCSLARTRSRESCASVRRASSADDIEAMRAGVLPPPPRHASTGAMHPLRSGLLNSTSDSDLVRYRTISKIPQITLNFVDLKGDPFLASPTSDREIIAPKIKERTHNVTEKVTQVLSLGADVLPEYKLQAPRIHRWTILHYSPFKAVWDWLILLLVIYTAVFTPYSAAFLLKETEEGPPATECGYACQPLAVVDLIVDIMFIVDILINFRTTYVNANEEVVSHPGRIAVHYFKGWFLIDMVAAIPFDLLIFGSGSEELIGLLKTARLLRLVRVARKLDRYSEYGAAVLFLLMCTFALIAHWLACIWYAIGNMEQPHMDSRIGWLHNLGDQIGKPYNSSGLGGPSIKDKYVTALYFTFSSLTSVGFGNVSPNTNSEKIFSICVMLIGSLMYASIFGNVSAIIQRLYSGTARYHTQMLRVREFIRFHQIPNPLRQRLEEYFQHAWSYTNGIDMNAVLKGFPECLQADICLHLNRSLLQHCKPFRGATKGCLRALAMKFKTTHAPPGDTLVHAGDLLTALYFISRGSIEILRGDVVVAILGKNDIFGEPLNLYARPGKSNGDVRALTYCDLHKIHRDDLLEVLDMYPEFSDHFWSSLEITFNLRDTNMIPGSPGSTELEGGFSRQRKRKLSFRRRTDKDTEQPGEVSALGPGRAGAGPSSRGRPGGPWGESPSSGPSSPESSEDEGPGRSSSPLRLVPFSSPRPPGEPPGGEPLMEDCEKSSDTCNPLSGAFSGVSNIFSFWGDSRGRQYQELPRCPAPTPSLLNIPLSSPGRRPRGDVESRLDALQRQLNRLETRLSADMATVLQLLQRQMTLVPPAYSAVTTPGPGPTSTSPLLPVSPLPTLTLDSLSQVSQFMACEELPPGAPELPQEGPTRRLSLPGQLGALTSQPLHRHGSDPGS
row,SMILES,"hERG current change (%, negative = inhibition) at 10uM"
1,CN(C)N=Nc1nc[nH]c1C(N)=O,2.75%
2,CCOC(=O)c1c(S(=O)(=O)NCC(C)c2ccccc2)c(C)n(C)c1C (stereo not drawn),-17.8%
3,O=C(c1ccc(CN2CCc3ccccc3C2)cc1)N1CCCCC1,-9.72%
4,CC(/C=N/Nc1nc(N2CCCCC2)nc(N2CCCCC2)n1)=C\c1ccccc1,0.942%
5,CC(C)CNC(=O)c1noc2c1CCCC2,8.63%
6,Cc1ccc(OCC(=O)NNC(=O)C2CCN(c3ncccn3)CC2)cc1,-18.6%
7,O=C(c1ccccc1N(Cc1ccccc1)S(=O)(=O)c1ccccc1)N1CCOCC1,-23.7%
8,O=C(/C=C/c1ccccc1[N+](=O)[O-])OCC(=O)c1ccccc1,2.42%
9,CCN1C(=O)CC(c2ccco2)Sc2ccccc21 (stereo not drawn),-16.8%
10,CC(C)c1nnc(NC(=O)CC(=O)Nc2ccccc2C(=O)O)s1,4.72%
11,COc1ccc(C2CCCN2C(=S)Nc2cccc(C)c2)cc1OC (stereo not drawn),-7.76%
12,CCOCCc1nnc(NC(=O)C(CC)c2ccccc2)s1 (stereo not drawn),-3.07%
13,CCOC(=O)C(CCC(=O)O)(CCC(C)C)c1csc(N)n1 (stereo not drawn),-12.2%
14,Oc1c(C(c2ccccn2)N2CCC(Cc3ccccc3)CC2)cc(Cl)c2cccnc12 (stereo not drawn),27.4%
15,CSc1nsc(/C=C/Nc2ccc(F)cc2)c1C#N,6.11%
16,CCCc1nnc(-c2cc(OC)c(OC)c(OC)c2)o1,19.4%
17,CSc1ncccc1C(=O)OCC(=O)c1cccs1,19.4%
18,Cc1ccc(CN(c2ccc(C(=O)NCc3cccnc3)cc2)S(C)(=O)=O)cc1,-14.9%
19,CCCn1c2ccccc2c2nc3ccccc3nc21,13%
20,COc1ccc(C(=O)Cn2nnc(-c3ccccc3NC(=O)C(F)(F)F)n2)cc1,-0.715%
21,Cc1ccc(NC(=O)COc2ccccc2CNC(C)(C)CC(C)(C)C)cc1,-22.7%
22,Cc1nc(-c2ccc(S(=O)(=O)N3CCN(c4ccccc4)CC3)cc2)co1,-0.497%
23,Nn1cnc2c(c1=O)C1(CCCCC1)Cc1ccccc1-2,2.08%

row,SMILES,"hERG current change (%, negative = inhibition) at 10uM"
1,Cc1nonc1OCCN1CCN(c2ccc([N+](=O)[O-])cc2)CC1,-98.3%
2,COc1ccc(N=C2SC(C(=O)N3CCN(c4ccc([N+](=O)[O-])cc4)CC3)CC(=O)N2C)cc1 (stereo not drawn),-68.2%
3,CC(Oc1ccc(Cl)cc1)c1ccnn1S(C)(=O)=O (stereo not drawn),4.67%
4,CSc1ccc(Cl)c(C(=O)NNC(=O)c2csc(N3CCOCC3)n2)c1,3.28%
5,COc1ccc2nc(NC(=O)CSc3nnc(C)n3N)sc2c1,0.177%
6,CCN(CC)c1ccc(CNc2nc3ccccc3n2C)cc1,-49.7%
7,FC(F)(F)c1nc(N2CCCC2)ncc1-c1nnnn1-c1ccc(Cl)cc1,-4.4%
8,CCOCCCNS(=O)(=O)c1ccc2c(c1)OCCO2,-8.07%
9,CSCc1ccc(C(=O)Nc2cc(C)cc(C)c2)cc1,-6.17%
10,COc1ccccc1NC(=O)CNC(=O)c1ccc(Br)o1,6.05%
11,Cl.O=C(NCCOC(=O)c1ccc(C(=O)OCCNC(=O)c2cccnc2)s1)c1cccnc1,7.73%
12,CCOC(=O)Cc1nn(C)c(=O)c2ccccc12,5.42%
13,CCCn1c(N2CCOCC2)nc2c1c(=O)[nH]c(=O)n2C,-15.5%
14,O=C(NC(=S)Nc1ccc([N+](=O)[O-])cc1O)C1CCCCC1,10.8%
15,CC(C)(C)N(Cc1ccccc1)C(=O)COC(=O)CNC(=O)c1ccco1,-7.15%
16,C=CCOC(=O)C(=O)/C=C/c1coc2ccccc2c1=O,-10.2%
17,Cc1c(C(c2cccs2)c2c(C)n(C)n(-c3ccccc3)c2=O)c(=O)n(-c2ccccc2)n1C,7.83%
18,O=C(CSc1nnc(NC(=O)c2ccccc2F)s1)Nc1ccccc1F,30.9%
19,CCCCNC(=O)COC(=O)CNC(=O)c1cc(Cl)cc([N+](=O)[O-])c1,5.47%
20,O=C(COc1coc(CN2CCc3ccccc3C2)cc1=O)Nc1ccc(F)cc1F,-6.04%
21,COc1ccc(NC(=O)c2ccc(F)cc2)cc1S(=O)(=O)Nc1cc(C)ccc1Br,-7.74%
22,CC1CCCCN1C(=S)Nc1ccc2nc3n(c(=O)c2c1)CCCCC3 (stereo not drawn),-59%
23,O=C(CS(=O)(=O)Cc1ccccc1)NCC1CCCO1 (stereo not drawn),4.95%

row,SMILES,"hERG current change (%, negative = inhibition) at 10uM"
1,O=C(CN1C(=O)CCSc2ccc(S(=O)(=O)N3CCCC3)cc21)Nc1ccccc1,17.7%
2,CCC(C)NC(=O)CSc1nc2c(sc(=S)n2-c2cc(Cl)ccc2OC)c(=O)[nH]1 (stereo not drawn),18.4%
3,Cc1ccc(N(C(=O)c2ccccc2Cl)C2=NC(C)CS2)c(C)c1 (stereo not drawn),16.2%
4,O=C(Nc1ccc(Br)c(Cl)c1)C1CC1,-15.4%
5,COc1ccc(N2CCN(S(=O)(=O)c3c[nH]c(=O)[nH]c3=O)CC2)cc1,12.3%
6,O=C(NCCc1ccccc1)c1ccnc(/C=N/O)c1,-19.2%
7,Cc1sc(NC(=O)CCCCC(=O)Nc2sc(C)c(C)c2C(=O)O)c(C(=O)O)c1C,2.57%
8,O=C(CSc1ccc2ccccc2c1)Nc1nc2ccccc2[nH]1,1.81%
9,Cc1ccccc1OCCCN1CCOCC1,9.44%
10,COc1ccc(CNC(=O)N2CCN(c3ccccc3)CC2)cc1,26.4%
11,COc1ccccc1C(=O)Nc1ccnn1C1CCN(Cc2ncc[nH]2)CC1,-16.3%
12,O=C(CCc1nnc(CCc2ccccc2)o1)NC(c1cccnc1)C(F)(F)F (stereo not drawn),-3.45%
13,CCN(CC(=O)NCc1ccc(Cl)cc1)C(=O)Cc1ccccc1[N+](=O)[O-],-63.4%
14,Cc1cc(NC(=O)CCCn2nc([N+](=O)[O-])cc2C)no1,5.57%
15,COc1ccc(/C=c2\sc3nc(=O)c(C)nn3c2=O)c(OC)c1,23%
16,Cl.Clc1ccc(CSc2nnc([C@@H]3CCCN3)o2)cc1Cl,1.04%
17,COc1cc(S(=O)(=O)NC2CCCC2)c(OC)cc1Cl,-0.849%
18,CC1CC(C)CN(C(=O)c2ccccc2Nc2ccc(SC(F)F)cc2)C1 (stereo not drawn),0.904%
19,CC(C)NC(=O)CNc1ccc(C(F)(F)F)cc1[N+](=O)[O-],15.1%
20,CSCCC(NC(=O)COc1ccccc1)C(=O)OCC(=O)c1cc2ccccc2o1 (stereo not drawn),8.62%
21,CCc1ccc(NC(=S)N2CCC(NC(=O)c3ccccc3)CC2)cc1,-2.42%
22,CSc1cccc(NC(=S)NCCCN2CCN(c3ccc(F)cc3)CC2)c1,-66.7%
23,Cc1c(OCC(=O)N[C@@H](Cc2ccccc2)C(=O)O)ccc2c1oc(=O)c1ccccc12,-7.9%

row,SMILES,"hERG current change (%, negative = inhibition) at 10uM"
1,O=S(=O)(c1cc(Cl)cc(Cl)c1O)N1CCC2(CC1)OCCO2,9.71%
2,c1ccc(-c2cnc(CN3CCN(c4ccccc4)CC3)o2)cc1,4.9%
3,COC(=O)CS(=O)(=O)c1ccsc1C(=O)Nc1ccc(F)cc1,3.5%
4,O=c1[nH]nc(N/N=C/c2ccc(Cl)cc2Cl)c(=O)[nH]1,-1.17%
5,O=C(CNC(=O)c1cccs1)NCC(=O)OCc1c(F)cccc1Cl,21.4%
6,Clc1ccccc1-c1nnc2sc(-c3cccs3)nn12,-4.57%
7,COc1cc(/C=N/NC(=O)c2cccc(S(=O)(=O)N3CCCC3)c2)ccc1O,-35.5%
8,CCC(C)(C)NC(=O)C(c1ccco1)N(C(=O)c1csnn1)c1cccc(F)c1 (stereo not drawn),-24.4%
9,Nc1ccc(C(=O)[O-])cc1.O.[Na+],3.37%
10,CC#CC(=O)N1CCC(C(=O)Nc2ccc(Oc3ccccc3)nc2)CC1,1.55%
11,OC(CN1CCN(C(c2ccccc2)c2ccccc2)CC1)c1ccccc1 (stereo not drawn),-30.8%
12,O=C(Nc1ncccc1O)c1cccc(S(=O)(=O)N2CCCC2)c1,2.37%
13,Cc1c(CCC(=O)O)c(=O)oc2cc(OCc3cccc(Cl)c3)ccc12,33.2%
14,COc1ccc(CCNC(=O)[C@H](C)NC(=O)[C@@H]2CSC3c4ccccc4C(=O)N32)cc1 (stereo partly drawn),-3.88%
15,CC(CNC(=O)CN1C(=O)NC2(CCCCC2)C1=O)c1ccccc1 (stereo not drawn),3.82%
16,CCn1c(NC(=O)C(C)C)c(-c2cccs2)c(=O)c2ccccc21,4.24%
17,O=C(c1cc(-c2cccnc2)nc2ccccc12)N1CCCc2ccccc21,-13.2%
18,COc1ccccc1CNS(=O)(=O)c1ccc2c(c1)NC(=O)C(C)S2 (stereo not drawn),-22%
19,Cc1ccc(CS(=O)(=O)Cc2ccc(C(=O)NCC3CCCO3)o2)cc1 (stereo not drawn),12%
20,CCCS(=O)(=O)N1CCC(C(=O)NCCc2ccccc2)CC1,1.42%
21,N#C/C(=C(/O)c1ccc(Br)s1)c1nc2ccccc2[nH]1,7.16%
